Measurements published in PubChem BioAssay (EPA / NIEHS).
Several values for one entry are separate records, joined by “and”; a condition that tells them apart may be missing. Equal entries are not always repeated. The inconclusive results got no clear call from the source; some entries with a clear call stand among them for comparison. Where the call is inconclusive, the potency comes from a doubtful curve fit. Where a structure was tested more than once in an assay, its records may differ in their call. Activity calls are given as the source filed them. Rule for the calls: active = hit-call score of the fitted dose curve at least 0.9, where 1 is the maximum; inconclusive = response in the unintended direction; inactive = score below 0.9.

tested on: chicken Androgen Receptor (AR), gene 422165; experiment: ATG_chAR_XSP2: Attagene TRANS-FACTORIAL Multi-Species (XSP2) HepG2 Assay for chicken Androgen Receptor (AR) (AID 2283819);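 note: hits raise reporter mRNA above DMSO so potency is for activation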
Method: ATG_XSP2_multi-species_TRANS is a cell-based, multiplexed assay created by modifying the existing Attagene TRANS-FACTORIAL system to include a panel of nuclear receptors from some or all the following species: human (Homo sapiens), mouse (Mus musculus), frog (Xenopus laevis), zebrafish (Danio rerio), chicken (Gallus gallus), and turtle (Chrysemys picta). The ECOTOX-FACTORIAL format uses HepG2, a human liver cell line, with measurements taken at 24 hours after chemical dosing in a 24-well plate. Xsp2 included 3 nM 6-alpha-fluorotestosterone and 1.5 nM norgestrel to stimulate the androgen receptor.ATG_chAR_XSP2 is one of 29 assay components measured or calculated from the ATG_XSP2_multi-species_TRANS assay. It is designed to make measurements of mRNA induction, a form of inducible reporter, as detected with fluorescence intensity signals by Reverse transcription polymerase chain reaction (RT-PCR) and Capillary electrophoresis technology.The assay endpoint ATG_chAR_XSP2 was analyzed in the positive analysis fitting direction relative to DMSO as the negative control and baseline of activity. Using a type of inducible reporter, measures of mRNA for gain-of-signal activity can be used to understand the reporter gene at the transcription factor-level as they relate to the gene AR. Furthermore, this assay endpoint can be referred to as a primary readout, because this assay has produced multiple assay endpoints where this one serves a reporter gene function. To generalize the intended target to other relatable targets, this assay endpoint is annotated to the nuclear receptor intended target family, where the subfamily is steroidal.
Human liver HepG2 cells are transiently transfected with multiple reporter transcription units (MRTUs) in 6-well plates using FuGene 6 reagent (Roche; 3 ml FuGene/1 mg DNA). The MRTU constructs are regulated by a cis-regulating element (promoter). […] A major difference between the CIS and TRANS system is that in CIS activities of endogenous TFs are measured, whereas the TRANS assay evaluates changes in activities of exogenous, chimeric NR-Gal4 proteins. […] At the end of 24 hour incubation, total RNA was isolated using TriZol reagent (Invitrogen). The isolated RNA is then reverse-transcribed using oligo(dT) primer and Mo-MLV reverse transcriptase (Invitrogen) with DNAse I (Ambion) treatment for 30 min. The one-tenth of the produced cDNA was amplified by PCR using Taq DNA polymerase (Invitrogen) and two reporter sequence-specific primers. The PCR products were fluorescently labeled by primer extension with 6-arboxyfluorescein (6-FAM) 5'-labeled reporter sequence-specific primer (2 min at 95 C, 20 s at 68 C and 10 min at 72 C) and these products were digested with 5U of HpaI (New England Biolabs) for 2h at 37 C. The fragments were purified using Qiaquick PCR columns (Qiagen), analyzed on an ABI 3130xL genetic analyzer (Applied Biosystems) with peak positions identified by using a set of X-rhodamine (ROX)-labeled MapMarker1000 molecular weight standards (BioVentures). The raw capillary electrophoresis data was processed using Attagraph software (Attagene).

Compound | AC50 | outcome
CC[C@H](c1ccc(O)cc1)[C@@H](CC)c1ccc(O)cc1 | inconclusive: 0.0273 µM | 
CC(=O)S[C@@H]1CC2=CC(=O)CC[C@]2(C)[C@H]2CC[C@@]3(C)[C@@H](CC[C@@]34CCC(=O)O4)[C@H]12 | inconclusive: 0.114 µM | 
CC(C)(c1ccc(O)cc1)c1ccc(O)cc1 | inconclusive: 1.02 µM | 
COc1ccc(-c2coc3cc(O)cc(O)c3c2=O)cc1 | active: 10 µM and active: 6.25 µM | 
CSC(=O)c1cccc2nnsc12 | inconclusive: 50.2 µM | inactive
C=CCOC(=O)c1ccccc1C(=O)OCC=C | inconclusive: 142 µM | inactive
C(=C(c1ccccc1)c1ccccc1)c1ccccc1 | inconclusive: 1 µM | 
N[C@@H](Cc1cc(I)c(Oc2ccc(O)c(I)c2)c(I)c1)C(=O)O | inconclusive: 0.3 nM and inconclusive: 152 µM | 
C[C@]12CC[C@H]3C(=CCc4cc(O)ccc43)[C@@H]1CCC2=O | inconclusive: 0.453 µM | 
COC(=O)c1c(C)cc(O)c(C)c1O | inconclusive: 100 µM | 
CC1(C)C(C=C(Cl)Cl)C1C(=O)OCc1cccc(Oc2ccccc2)c1 (stereo not given) |  | inactive
CC(C)C(=O)Nc1ccc([N+](=O)[O-])c(C(F)(F)F)c1 | inconclusive: 77.6 µM | 
C=C1C[C@H]2[C@@H]3C=C(C)C4=CC(=O)CC[C@]4(C)[C@H]3CC[C@]2(C)[C@@]1(OC(C)=O)C(C)=O | inconclusive: 9.43 µM and inconclusive: 1.69 µM | 
CCCCCCCCOC(=O)c1ccc(O)cc1 | active: 33.4 µM | inactive
COc1ccc(C(=O)c2ccccc2)c(O)c1 | inconclusive: 78.8 µM and inconclusive: 54.4 µM | 
CCN(CC)CCOc1ccc(C(=C(Cl)c2ccccc2)c2ccccc2)cc1 | inconclusive: 7.39 µM and inconclusive: 4.31 µM | 

Compound | AC50 | outcome
CC(CCC(=O)O)(c1ccc(O)cc1)c1ccc(O)cc1 |  | inactive
Cc1c(C)c2c(c(C)c1O)CCC(C)(COc1ccc(CC3SC(=O)NC3=O)cc1)O2 (stereo not given) | inconclusive: 2.72 µM | 
Cc1c2ccccc2c(C)c2c1ccc1ccccc12 | active: 9.02 µM | 
CN(C)C(=O)Nc1ccc(Cl)c(Cl)c1 | inconclusive: 180 µM and inconclusive: 100 µM | 
O=C(OCCOCCOCCOC(=O)c1ccccc1)c1ccccc1 | inconclusive: 100 µM | inactive
CCCCCCCCCCCCc1ccc(O)cc1 | inconclusive: 1 µM | 
CCC(=C(c1ccc(O)cc1)c1ccc(OCCN(C)C)cc1)c1ccccc1 | inconclusive: 7.2 µM and inconclusive: 3.96 µM | 
c1ccc(B(c2ccccc2)c2ccccc2)cc1 | inconclusive: 100 µM | inactive
O=C(c1ccccc1)c1ccc(O)cc1O |  | inactive
CCCc1cc(=O)[nH]c(=S)[nH]1 | inconclusive: 181 µM | 
O=c1c(-c2ccc(O)cc2)coc2cc(O)ccc12 | inconclusive: 0.126 µM | inactive
N#Cc1ccc(C2CCCc3cncn32)cc1 (stereo not given) | inconclusive: 50 µM | inactive
CCC(C)(C)C1CCC(O)CC1 (stereo not given) | inconclusive: 17.1 µM | 
O=C(O)Cc1cc(I)c(Oc2cc(I)c(O)c(I)c2)c(I)c1 | inconclusive: 0.65 µM | inactive
O=C(O)/C=C/c1ccccc1 | inconclusive: 0.105 µM | 
O=C(c1ccc(O)cc1O)c1ccc(O)cc1O | active: 8.13 µM | 
